# Laboratory results reported in PubChem BioAssay AID488969 (Vanderbilt High Throughput Screening Facility, 2010).
# Whole data set: some 110,000 compounds, median “z-score” near -0.1, cut for the highest 2% near 2. The list shows a part of the results.
# Target: Metabotropic glutamate receptor 8 (Rattus norvegicus) (UniProt P70579)
# Assay: rat mGluR8 modulators via GIRK flux, primary screen, cell-based, thallium flux, HTS (AID 488969)
# Conditions: HEK293 rat mGluR8, GIRK (G protein-gated inwardly rectifying potassium channel) thallium flux, FluoZin2; at 10 µM; stronger effect = higher value; submaximal glutamate (EC20) added with thallium
# UniProt P70579, sequence (P70579 whole entry, looked up): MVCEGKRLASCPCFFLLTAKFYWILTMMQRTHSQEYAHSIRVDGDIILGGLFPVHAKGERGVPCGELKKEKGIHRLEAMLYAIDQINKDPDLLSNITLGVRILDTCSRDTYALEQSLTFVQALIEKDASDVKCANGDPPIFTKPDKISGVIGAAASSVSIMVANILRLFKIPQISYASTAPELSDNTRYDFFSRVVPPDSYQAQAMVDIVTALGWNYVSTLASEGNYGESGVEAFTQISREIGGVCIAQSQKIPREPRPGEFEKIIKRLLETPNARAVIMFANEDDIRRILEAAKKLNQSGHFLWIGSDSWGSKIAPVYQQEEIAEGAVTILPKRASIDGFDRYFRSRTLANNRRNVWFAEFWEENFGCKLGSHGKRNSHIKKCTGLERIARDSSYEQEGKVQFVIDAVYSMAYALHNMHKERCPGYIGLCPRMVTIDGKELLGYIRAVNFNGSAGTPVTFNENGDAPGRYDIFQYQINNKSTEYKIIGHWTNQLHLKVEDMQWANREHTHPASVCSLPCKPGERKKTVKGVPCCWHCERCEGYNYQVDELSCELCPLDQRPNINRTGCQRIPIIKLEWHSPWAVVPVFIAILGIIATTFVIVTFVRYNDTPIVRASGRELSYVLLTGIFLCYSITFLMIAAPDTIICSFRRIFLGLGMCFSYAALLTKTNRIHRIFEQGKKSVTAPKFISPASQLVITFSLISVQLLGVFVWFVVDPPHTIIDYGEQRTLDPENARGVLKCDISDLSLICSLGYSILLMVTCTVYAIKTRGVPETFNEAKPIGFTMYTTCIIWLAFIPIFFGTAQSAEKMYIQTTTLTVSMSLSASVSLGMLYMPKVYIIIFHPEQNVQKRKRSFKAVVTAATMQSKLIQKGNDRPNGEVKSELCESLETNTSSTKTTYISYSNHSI
row,SMILES,z-score
1,COc1cccc(NC(=O)Cn2cnc3sc(C)c(S(=O)(=O)N4CCN(C)CC4)c3c2=O)c1,0.0151
2,CCCS(=O)(=O)N1CCC(C(=O)NCCN(C)Cc2ccccc2)CC1,0.549
3,O=C1c2ccccc2C(=O)N1CCc1nc(-c2ccncc2)no1,-0.133
4,COc1ccc(/C=N/NC(=O)c2ccn[nH]2)cc1COc1ccc(Cl)cc1,-0.168
5,Cc1cccnc1NC(=O)Cn1nc(C)c([N+](=O)[O-])c1C,-0.0376
6,Cc1oc(-c2ccc(Cl)cc2)nc1CN1CCC(C(=O)N2CCN(Cc3ccccc3)CC2)CC1,0.0945
7,O=c1c(-c2nc3ccccc3s2)cccn1Cc1ccccc1,0.0467
8,Cc1nc(SCC(=O)Nc2ccccc2C(F)(F)F)c2c(=O)n(C)c(=O)n(C)c2n1,-0.153
9,COc1cccc(C2=NOC(C(=O)NCc3ccco3)C2)c1 (stereo unspecified),-0.0737
10,CCN(CC)P1(=O)OC(c2cc(OC)c(OC)c(OC)c2)=Nc2c1c(C)nn2-c1ccccc1 (stereo unspecified),-1.4
11,C=CCc1cc(C(=O)N2CCCCC2)ccc1O,0.078
12,CCOc1ccc(/C=N/NC(=S)Nc2c(C)cccc2C)cc1,0.767
13,N=c1sc2ccccc2n1-c1ccccc1,-0.074
14,CCCc1ccc(-c2c(C)sc(N)c2C#N)cc1,-0.38
15,CCOC(=O)CC(=O)c1cc(OC)c(OC)c(OC)c1,0.627
16,COCCCn1c(SCC(=O)NCc2ccco2)nc2sc3c(c2c1=O)CCC3,-0.383

row,SMILES,z-score
1,Oc1ccc(Nc2nc(-c3ccc(O)cc3)cs2)cc1,0.0887
2,COc1ccc(C2=NCN(c3ccc(C)cc3)C(=S)N2)cc1,0.826
3,C=C(C)CN1CCN(S(=O)(=O)c2ccc(C)c(N(C)S(=O)(=O)c3ccc(C)cc3)c2C)CC1,-0.0807
4,O=C(COc1ccc2c3c(c(=O)oc2c1)CCC3)c1ccc2c(c1)OCO2,-0.411
5,Cn1nnnc1SCC(=O)Nc1cc(C(C)(C)C)nn1-c1ccccc1,1.33
6,Cn1c(-c2ccc(C(=O)c3ccccc3)s2)nc2ccccc21,-0.293
7,NNC(=O)c1cc2c(s1)CCCCCC2,0.0976
8,C1CCC(Nc2nnnn2C2CCCCC2)CC1,-0.0985
9,Cc1ccc(-c2nn(CC(=O)NCCN3CCOCC3)c(=O)c3ccccc23)cc1,-0.0872
10,O=C(CCc1nc2ccccc2[nH]c1=O)OCC(=O)c1ccc(Cl)cc1,0.331
11,COc1ccc(C=O)cc1COc1ccc(F)cc1F,-0.293
12,CN1CCN(C(=O)C23CC4CC(CC(C4)C2)C3)CC1,0.0565
13,NC(=O)c1oc2ccccc2c1NC(=O)c1ccc(F)cc1,0.595
14,CCC(=O)c1c[nH]c(C(=O)NCC2CCCO2)c1 (stereo unspecified),0.0438
15,COc1ccc(Nc2cc(C(=O)NCCCN3CCN(C)CC3)c3ccccc3n2)cc1OC,0.285
